Results are given in words; binding and its absence hold for the method and conditions named. Binding seen in cells or lysates may run through a third protein. Some entries that bind do so weakly or less than the wild type. Sequences can lack the tags named with a protein.
Key:
SUVR2-Flag (Arabidopsis) [1] = target: T1, SUVR2-Flag (Arabidopsis) (UniProt Q9FNC7); experiment: co-IP; protein extracts of Arabidopsis plants harboring two tagged proteins; anti-c-Myc agarose, anti-Flag M1 agarose or anti-AGO4 conjugated agarose; western blotting
T1 sequence: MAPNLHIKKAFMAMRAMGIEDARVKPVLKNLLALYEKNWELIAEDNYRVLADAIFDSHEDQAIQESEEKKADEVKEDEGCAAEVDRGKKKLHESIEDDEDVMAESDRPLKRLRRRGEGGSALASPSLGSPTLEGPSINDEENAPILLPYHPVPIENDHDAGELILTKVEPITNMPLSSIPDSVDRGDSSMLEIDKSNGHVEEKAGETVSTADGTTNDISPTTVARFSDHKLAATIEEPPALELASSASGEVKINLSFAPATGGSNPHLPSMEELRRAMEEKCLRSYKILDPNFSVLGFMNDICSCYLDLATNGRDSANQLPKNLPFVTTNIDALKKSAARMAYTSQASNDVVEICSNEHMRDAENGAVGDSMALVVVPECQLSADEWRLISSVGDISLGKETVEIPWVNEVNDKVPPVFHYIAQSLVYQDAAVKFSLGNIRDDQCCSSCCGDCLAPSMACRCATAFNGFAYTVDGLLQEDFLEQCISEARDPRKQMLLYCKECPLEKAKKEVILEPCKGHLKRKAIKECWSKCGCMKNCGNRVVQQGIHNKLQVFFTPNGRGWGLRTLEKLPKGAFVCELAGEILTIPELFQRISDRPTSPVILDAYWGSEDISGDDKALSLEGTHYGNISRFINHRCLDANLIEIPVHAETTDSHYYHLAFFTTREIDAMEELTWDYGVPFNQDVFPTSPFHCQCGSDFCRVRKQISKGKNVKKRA

SUVR2-Flag (Arabidopsis) [2] = target: T1, SUVR2-Flag (Arabidopsis); experiment: co-IP; protein extracts of Arabidopsis transgenic plants (or F1 hybrids with two tagged proteins); precipitated with anti-c-Myc agarose, anti-Flag M1 agarose or anti-AGO4 conjugated agarose; western blotting
GST-SUVR1 (Arabidopsis) = target: T2, GST-SUVR1 (Arabidopsis) (UniProt Q946J2); experiment: pull-down; GST pull-down with bacterially expressed GST fusion as bait and His-tagged protein as prey; GST as control
T2 sequence: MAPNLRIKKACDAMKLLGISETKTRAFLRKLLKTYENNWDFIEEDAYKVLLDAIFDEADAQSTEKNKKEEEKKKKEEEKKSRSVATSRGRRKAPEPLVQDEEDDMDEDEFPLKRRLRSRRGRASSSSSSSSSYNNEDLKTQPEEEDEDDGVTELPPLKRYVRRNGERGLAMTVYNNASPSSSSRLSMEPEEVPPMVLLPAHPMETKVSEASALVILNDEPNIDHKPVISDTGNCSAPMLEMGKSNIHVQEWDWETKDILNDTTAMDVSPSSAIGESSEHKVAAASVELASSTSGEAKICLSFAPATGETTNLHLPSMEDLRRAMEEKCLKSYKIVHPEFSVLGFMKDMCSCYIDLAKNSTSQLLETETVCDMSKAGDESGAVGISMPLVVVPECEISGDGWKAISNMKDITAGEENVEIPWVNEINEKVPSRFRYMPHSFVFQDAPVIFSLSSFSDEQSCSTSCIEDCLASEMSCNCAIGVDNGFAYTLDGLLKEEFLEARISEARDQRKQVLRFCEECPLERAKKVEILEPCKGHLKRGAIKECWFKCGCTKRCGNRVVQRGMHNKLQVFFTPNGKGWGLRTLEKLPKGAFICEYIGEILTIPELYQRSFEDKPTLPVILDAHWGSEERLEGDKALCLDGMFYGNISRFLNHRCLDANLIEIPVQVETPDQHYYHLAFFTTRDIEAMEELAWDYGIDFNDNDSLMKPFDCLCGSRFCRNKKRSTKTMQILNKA

SUVR2-Myc (Arabidopsis) = target: T3, SUVR2-Myc (Arabidopsis) (UniProt Q9FNC7); experiment: co-IP; protein extracts of Arabidopsis plants harboring two tagged proteins; anti-c-Myc agarose, anti-Flag M1 agarose or anti-AGO4 conjugated agarose; western blotting
T3 sequence: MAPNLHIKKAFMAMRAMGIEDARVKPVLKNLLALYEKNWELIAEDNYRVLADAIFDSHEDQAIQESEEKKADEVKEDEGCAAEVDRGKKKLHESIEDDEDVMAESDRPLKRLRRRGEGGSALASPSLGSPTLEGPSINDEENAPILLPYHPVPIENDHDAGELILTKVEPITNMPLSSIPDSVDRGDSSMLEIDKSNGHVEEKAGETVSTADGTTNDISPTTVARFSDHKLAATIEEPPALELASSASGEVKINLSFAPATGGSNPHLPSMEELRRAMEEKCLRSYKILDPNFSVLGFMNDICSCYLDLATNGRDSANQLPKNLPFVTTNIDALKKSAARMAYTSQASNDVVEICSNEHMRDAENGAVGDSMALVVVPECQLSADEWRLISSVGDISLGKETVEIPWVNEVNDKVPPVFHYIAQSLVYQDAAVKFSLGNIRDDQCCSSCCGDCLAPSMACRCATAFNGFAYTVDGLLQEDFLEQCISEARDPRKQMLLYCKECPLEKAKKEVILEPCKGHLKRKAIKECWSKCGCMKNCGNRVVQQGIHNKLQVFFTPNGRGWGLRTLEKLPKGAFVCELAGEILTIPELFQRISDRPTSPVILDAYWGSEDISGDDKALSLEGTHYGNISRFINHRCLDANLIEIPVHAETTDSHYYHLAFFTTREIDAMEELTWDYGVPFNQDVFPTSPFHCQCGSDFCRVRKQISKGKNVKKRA

| Binder | binding (SUVR2-Flag (Arabidopsis) [1]) | binding (GST-SUVR1 (Arabidopsis)) | other results |
| --- | --- | --- | --- |
| RDM1-Myc (protein, UniProt Q9LUJ3 1-163) MQSSMTMELRPSGDSGSSDVDAEISDGFSPLDTSHRDVADEGSLLRRAEMYQDYMKQVPIPTNRGSLIPFTSWVGLSISMKQLYGQPLHYLTNVLLQRWDQSRFGTDSEEQRLDSIIHPTKAEATIWLVEEIHRLTPSHLHMALLWRSDPMYHSFIDPIFPEK | no binding |  | binding (SUVR2-Flag (Arabidopsis) [2]): no binding |
| His-SUVR2 (full-length SUVR2 in fusion with the His tag) (protein, UniProt Q9FNC7 1-717) MAPNLHIKKAFMAMRAMGIEDARVKPVLKNLLALYEKNWELIAEDNYRVLADAIFDSHEDQAIQESEEKKADEVKEDEGCAAEVDRGKKKLHESIEDDEDVMAESDRPLKRLRRRGEGGSALASPSLGSPTLEGPSINDEENAPILLPYHPVPIENDHDAGELILTKVEPITNMPLSSIPDSVDRGDSSMLEIDKSNGHVEEKAGETVSTADGTTNDISPTTVARFSDHKLAATIEEPPALELASSASGEVKINLSFAPATGGSNPHLPSMEELRRAMEEKCLRSYKILDPNFSVLGFMNDICSCYLDLATNGRDSANQLPKNLPFVTTNIDALKKSAARMAYTSQASNDVVEICSNEHMRDAENGAVGDSMALVVVPECQLSADEWRLISSVGDISLGKETVEIPWVNEVNDKVPPVFHYIAQSLVYQDAAVKFSLGNIRDDQCCSSCCGDCLAPSMACRCATAFNGFAYTVDGLLQEDFLEQCISEARDPRKQMLLYCKECPLEKAKKEVILEPCKGHLKRKAIKECWSKCGCMKNCGNRVVQQGIHNKLQVFFTPNGRGWGLRTLEKLPKGAFVCELAGEILTIPELFQRISDRPTSPVILDAYWGSEDISGDDKALSLEGTHYGNISRFINHRCLDANLIEIPVHAETTDSHYYHLAFFTTREIDAMEELTWDYGVPFNQDVFPTSPFHCQCGSDFCRVRKQISKGKNVKKRA |  | binds |  |
| His-SUVR1 (protein, UniProt Q946J2 1-734) MAPNLRIKKACDAMKLLGISETKTRAFLRKLLKTYENNWDFIEEDAYKVLLDAIFDEADAQSTEKNKKEEEKKKKEEEKKSRSVATSRGRRKAPEPLVQDEEDDMDEDEFPLKRRLRSRRGRASSSSSSSSSYNNEDLKTQPEEEDEDDGVTELPPLKRYVRRNGERGLAMTVYNNASPSSSSRLSMEPEEVPPMVLLPAHPMETKVSEASALVILNDEPNIDHKPVISDTGNCSAPMLEMGKSNIHVQEWDWETKDILNDTTAMDVSPSSAIGESSEHKVAAASVELASSTSGEAKICLSFAPATGETTNLHLPSMEDLRRAMEEKCLKSYKIVHPEFSVLGFMKDMCSCYIDLAKNSTSQLLETETVCDMSKAGDESGAVGISMPLVVVPECEISGDGWKAISNMKDITAGEENVEIPWVNEINEKVPSRFRYMPHSFVFQDAPVIFSLSSFSDEQSCSTSCIEDCLASEMSCNCAIGVDNGFAYTLDGLLKEEFLEARISEARDQRKQVLRFCEECPLERAKKVEILEPCKGHLKRGAIKECWFKCGCTKRCGNRVVQRGMHNKLQVFFTPNGKGWGLRTLEKLPKGAFICEYIGEILTIPELYQRSFEDKPTLPVILDAHWGSEERLEGDKALCLDGMFYGNISRFLNHRCLDANLIEIPVQVETPDQHYYHLAFFTTRDIEAMEELAWDYGIDFNDNDSLMKPFDCLCGSRFCRNKKRSTKTMQILNKA |  | binds |  |
| CHR19-Myc (protein, UniProt Q9ZUL5 1-763) MKRDFDEISEEEWSQHSFNASRVLKRPRTPKKTRAATNPTPSIESFAFRRPSTAMTIESNSSDGDCVEIEDLGDSDSDVKIVNGEDLLLEDEEEVEETKVVMRAARVGRRFVIEDEEASDDDDDEAESSASEDEFGGGGGGSGGRRGEDEDVVGKALQKCAKISADLRKELYGTSSGVTDRYSEVETSTVRIVTQNDIDDACKAEDSDFQPILKPYQLVGVNFLLLLYKKGIEGAILADEMGLGKTIQAITYLTLLSRLNNDPGPHLVVCPASVLENWERELRKWCPSFTVLQYHGAARAAYSRELNSLSKAGKPPPFNVLLVCYSLFERHSEQQKDDRKVLKRWRWSCVLMDEAHALKDKNSYRWKNLMSVARNANQRLMLTGTPLQNDLHELWSLLEFMLPDIFTTENVDLKKLLNAEDTELITRMKSILGPFILRRLKSDVMQQLVPKIQRVEYVLMERKQEDAYKEAIEEYRAASQARLVKLSSKSLNSLAKALPKRQISNYFTQFRKIANHPLLIRRIYSDEDVIRIARKLHPIGAFGFECSLDRVIEEVKGFNDFRIHQLLFQYGVNDTKGTLSDKHVMLSAKCRTLAELLPSMKKSGHRVLIFSQWTSMLDILEWTLDVIGVTYRRLDGSTQVTDRQTIVDTFNNDKSIFACLLSTRAGGQGLNLTGADTVIIHDMDFNPQIDRQAEDRCHRIGQTKPVTIFRLVTKSTVDENIYEIAKRKLVLDAAVLESGVHVDDNGDTPEKTMGEILASLLMG | binds |  |  |
| KTF1-Flag (protein, UniProt F4JW79 1-1493) MDRKGKGKQVAGSDSYSGGQKRKNSVEFRDEGLRIKKRKNPEVLQFFEESAEVGYYGGSSDEDDDGLGFLNDMEDEPEVEESSKAGKGEKGKSSFVFPKEEDLNEEEFDRIMEERYKPGSGFLRYADDDIKDAIEMDALAPTSKDPPIWKVKCAIGRERRSVFCLMHKFVELRKIGTKLEIISVFSVDHVKGFIFIEADKEHDVLEACKSLVGIYATRMVLLPKAETPNLLTVQKKTKKVSEGTWARVKNGKYKGDLAQIVAVSDTRNKALIKLIPRIDIQALTQKYGGGVTVQKGQTPAPRLISSSELEEFRPLIQVRRDRDTGITFEHLDSLMLKDGYLYKKVSLDSISSWGVIPTKDELLKFTPVDRKETGDVEWISEIYGEERKKKILPTCREGGKGEGSGGGKGEGSGGGKGEGSRGGKGEGSSDFKSESSYELYNLVCFSRKDFGLIVGVDDKGDGYKVLKEGIDGPVVVTVGKKEMQNGPFDSKFTALDLNKKQISVNDVVKISKGPSEGKQGVVRQVYRGIIFLYDESEEENGGYFCCKSQSCEKVKLFTEESNEKTGGFDGTAFEDFVSSPKSPLSPEKEWQPRERYNSSNQGDIGSTYSIGQKLRIRVGPLKGYLCRVIALRYSDVTVKLDSQHKIFTVKSEHLAEVRDRNTVLSTSGDAGTGSFQPFGMLGTESSTGDWAIGAGTSSEGGNWNIGGPSTDSHESLNIERNMVQLCREKNPWGGSKPTSDVSPTVADDNTSAWANAAAENKPASASDQPGGWNPWGKTPASEAGTVSGWGDTSASNVEASSWEKQGASTSNVADLGSWGTHGGSSGGNKQDEDSVWGKLCEASESSQKKEESSWGKKGGSDGESSWGNKDGNSSASKKDGVSWGQQDKGSDESKGGSAWSNQCGDFGSGKKKDGSSGWNKSAEDSNANSKGVPDWGQPNDGSSWGKKGDGAASWGKKDDGGSWGKKDDGNKDDGGSSWGKKDDGQKDDGGSSWEKKFDGGSSWGKKDDGGSSWGKKDDGGSLWGKKDDGGSSWGKEDDGGSLWGKKDDGESSWGKKDDGESSWGKKDDGGSSWGKKDEGGYSEQTFDRGGRGFGGRRGGGRRGGRDQFGRGSSFGNSEDPAPWSKPSGGSSWGKQDGDGGGSSWGKENDAGGGSSWGKQDNGVGSSWGKQNDGSGGGSSWGKQNDAGGGSSWGKQDSGGDGSSWGKQDGGGDSGSAWGKQNNTSGGSSWGKQSDAGGGSSWGKQDGGGGGSSWGKQDGGGGSGSAWGKQNETSNGSSWGKQNDSGGGSSWGKQDGGGGGSSWGKQNDGGGGSSWGKQGDGGSKPWNEHSGGGRGFGERRGGGGFRGGRNQSGRGGRSFDGGRSSSWKTDNQENTWKSDQSGGSDWKKGWGEDSNNSKPSGSSAGGCAGNWPSWDTNSKKETNDKPGDDSKSAWGTSNDQVNTDNNNDSWNKKPNNDVGTSGEADNAWGGKTNAVAPSPSGSAAWGTGDKKTGW |  |  | binding (SUVR2-Myc (Arabidopsis)): no binding |

Reference: paper PMC4260354
